Results published in patent publication US20220339143A1, “TAK-925 FOR USE IN TREATING NARCOLEPSY” (Takeda Pharmaceutical Company Limited, priority 2019, published 2022).
Further values from the same series stand in other lists.

Experiment: Single dose PK in healthy subjects (Cohorts 1, 2, S1 and S2), plasma
Assay type: in vivo, human
Experimental: This study investigates (i) the safety and tolerability of Compound A (methyl (2R,3S)-3-((methylsulfonyl)amino)-2-(((cis-4-phenylcyclohexyl)oxy)methyl)piperidine-1-carboxylate) when a single dose given as a 9 hour continuous IV infusion is administered to healthy adults, healthy elderly subjects and patients with narcolepsy type 1 (NT1); (ii) the pharmacokinetics of Compound A when a single dose given as a 9 hour continuous IV infusion is administered to healthy adults, healthy elderly subjects and patients with narcolepsy type 1; and (iii) the pharmacodynamics (PD) effects of Compound A, primarily by evaluation of the sleep latency on MWT when a single dose given as a 9 hour continuous IV infusion is administered to patients with narcolepsy type 1.
Pharmacokinetics: Concentrations of Compound A in plasma, and CSF, and pharmacokinetics parameters.
On average, the time to reach the plateau appeared to be approximately 3 to 4 hours after the start of infusion. […] After switching off the IV infusion, Compound A plasma concentrations declined rapidly and in a biphasic manner with a mean terminal disposition phase t1/2z ranging approximately from 3.4 to 5.1 hours across all doses. […] Table 5 provides a summary of plasma concentrations of Compound A after a single IV infusion in healthy subjects. Table 6 provides a summary of pharmacokinetic parameters of Compound A after a single IV infusion in healthy subjects.

[1] = 7 mg, 0.17 hr After End of Infusion
[2] = 7 mg, 0.5 hr After End of Infusion
[3] = 7 mg, 0.75 hr After End of Infusion
[4] = 7 mg, 1 hr After End of Infusion
[5] = 7 mg, 1.5 hr After End of Infusion
[6] = 7 mg, 2 hr After End of Infusion
[7] = 7 mg, 3 hr After End of Infusion
[8] = 7 mg, 4 hr After End of Infusion
[9] = 7 mg, 6 hr After End of Infusion
[10] = 7 mg, 15 hr After End of Infusion
[11] = 14 mg, 0.17 hr After End of Infusion
[12] = 14 mg, 0.33 hr After End of Infusion
[13] = 14 mg, 0.5 hr After End of Infusion
[14] = 14 mg, 0.75 hr After End of Infusion
[15] = 14 mg, 1 hr After End of Infusion
[16] = 14 mg, 1.5 hr After End of Infusion
[17] = 14 mg, 2 hr After End of Infusion
[18] = 14 mg, 3 hr After End of Infusion
[19] = 14 mg, 4 hr After End of Infusion
[20] = 14 mg, 6 hr After End of Infusion
[21] = 14 mg, 15 hr After End of Infusion

COC(=O)N1CCC[C@H](NS(C)(=O)=O)[C@@H]1CO[C@H]1CC[C@@H](c2ccccc2)CC1 [Compound A, methyl (2R,3S)-3-((methylsulfonyl)amino)-2-(((cis-4-phenylcyclohexyl)oxy)methyl)piperidine-1-carboxylate]
Plasma concentration, Maximum [1]: 10.6 ng/mL
Plasma concentration, Median [1]: 9.460 ng/mL
Plasma concentration, Q3 [1]: 9.740 ng/mL
Plasma concentration, Maximum (7 mg, 0.33 hr After End of Infusion): 8.86 ng/mL
Plasma concentration, Maximum [2]: 8.10 ng/mL
Plasma concentration, Q3 [2]: 6.720 ng/mL
Plasma concentration, Maximum [3]: 5.95 ng/mL
Plasma concentration, Q3 [3]: 5.790 ng/mL
Plasma concentration, Maximum [4]: 5.65 ng/mL
Plasma concentration, Q3 [4]: 4.900 ng/mL
Plasma concentration, Maximum [5]: 4.74 ng/mL
Plasma concentration, Q3 [5]: 4.590 ng/mL
Plasma concentration, Maximum [6]: 2.96 ng/mL
Plasma concentration, Mean [6]: 2.516 ng/mL
Plasma concentration, Median [6]: 2.340 ng/mL
Plasma concentration, Minimum [6]: 2.26 ng/mL
Plasma concentration, Q1 [6]: 2.290 ng/mL
Plasma concentration, Q3 [6]: 2.730 ng/mL
Plasma concentration, Maximum [7]: 1.99 ng/mL
Plasma concentration, Mean [7]: 1.774 ng/mL
Plasma concentration, Median [7]: 1.890 ng/mL
Plasma concentration, Minimum [7]: 1.45 ng/mL
Plasma concentration, Q1 [7]: 1.610 ng/mL
Plasma concentration, Q3 [7]: 1.930 ng/mL
Plasma concentration, Maximum [8]: 1.85 ng/mL
Plasma concentration, Mean [8]: 1.490 ng/mL
Plasma concentration, Median [8]: 1.480 ng/mL
Plasma concentration, Minimum [8]: 1.06 ng/mL
Plasma concentration, Q1 [8]: 1.280 ng/mL
Plasma concentration, Q3 [8]: 1.780 ng/mL
Plasma concentration, Maximum [9]: 1.24 ng/mL
Plasma concentration, Mean [9]: 0.9622 ng/mL
Plasma concentration, Median [9]: 0.9060 ng/mL
Plasma concentration, Minimum [9]: 0.746 ng/mL
Plasma concentration, Q1 [9]: 0.7990 ng/mL
Plasma concentration, Q3 [9]: 1.120 ng/mL
Plasma concentration, Maximum [10]: 0.501 ng/mL
Plasma concentration, Mean [10]: 0.1878 ng/mL
Plasma concentration, Median [10]: 0.000 ng/mL
Plasma concentration, Minimum [10]: 0.00 ng/mL
Plasma concentration, Q1 [10]: 0.000 ng/mL
Plasma concentration, Q3 [10]: 0.4380 ng/mL
Plasma concentration, Maximum (7 mg, Predose): 0.00 ng/mL
Plasma concentration, Median (7 mg, Predose): 0.000 ng/mL
Plasma concentration, Q3 (7 mg, Predose): 0.000 ng/mL
Plasma concentration, Maximum [11]: 22.7 ng/mL
Plasma concentration, Mean [11]: 19.38 ng/mL
Plasma concentration, Median [11]: 19.65 ng/mL
Plasma concentration, Minimum [11]: 14.1 ng/mL
Plasma concentration, Q1 [11]: 18.00 ng/mL
Plasma concentration, Q3 [11]: 22.20 ng/mL
Plasma concentration, Maximum [12]: 20.5 ng/mL
Plasma concentration, Mean [12]: 16.58 ng/mL
Plasma concentration, Median [12]: 17.00 ng/mL
Plasma concentration, Minimum [12]: 11.5 ng/mL
Plasma concentration, Q1 [12]: 14.90 ng/mL
Plasma concentration, Q3 [12]: 18.60 ng/mL
Plasma concentration, Maximum [13]: 18.1 ng/mL
Plasma concentration, Mean [13]: 14.95 ng/mL
Plasma concentration, Median [13]: 15.15 ng/mL
Plasma concentration, Minimum [13]: 10.6 ng/mL
Plasma concentration, Q1 [13]: 12.80 ng/mL
Plasma concentration, Q3 [13]: 17.90 ng/mL
Plasma concentration, Maximum [14]: 15.9 ng/mL
Plasma concentration, Mean [14]: 12.78 ng/mL
Plasma concentration, Median [14]: 12.90 ng/mL
Plasma concentration, Minimum [14]: 9.06 ng/mL
Plasma concentration, Q1 [14]: 10.90 ng/mL
Plasma concentration, Q3 [14]: 15.00 ng/mL
Plasma concentration, Maximum [15]: 14.6 ng/mL
Plasma concentration, Mean [15]: 11.65 ng/mL
Plasma concentration, Median [15]: 11.15 ng/mL
Plasma concentration, Minimum [15]: 8.00 ng/mL
Plasma concentration, Q1 [15]: 10.80 ng/mL
Plasma concentration, Q3 [15]: 14.20 ng/mL
Plasma concentration, Maximum [16]: 13.5 ng/mL
Plasma concentration, Mean [16]: 10.22 ng/mL
Plasma concentration, Median [16]: 10.12 ng/mL
Plasma concentration, Minimum [16]: 6.95 ng/mL
Plasma concentration, Q1 [16]: 8.660 ng/mL
Plasma concentration, Q3 [16]: 12.00 ng/mL
Plasma concentration, Maximum [17]: 9.15 ng/mL
Plasma concentration, Mean [17]: 6.888 ng/mL
Plasma concentration, Median [17]: 7.110 ng/mL
Plasma concentration, Minimum [17]: 4.84 ng/mL
Plasma concentration, Q1 [17]: 5.060 ng/mL
Plasma concentration, Q3 [17]: 8.060 ng/mL
Plasma concentration, Maximum [18]: 6.11 ng/mL
Plasma concentration, Mean [18]: 4.567 ng/mL
Plasma concentration, Median [18]: 4.435 ng/mL
Plasma concentration, Minimum [18]: 3.41 ng/mL
Plasma concentration, Q1 [18]: 3.890 ng/mL
Plasma concentration, Q3 [18]: 5.120 ng/mL
Plasma concentration, Maximum [19]: 5.24 ng/mL
Plasma concentration, Mean [19]: 3.873 ng/mL
Plasma concentration, Median [19]: 3.465 ng/mL
Plasma concentration, Minimum [19]: 2.97 ng/mL
Plasma concentration, Q1 [19]: 3.100 ng/mL
Plasma concentration, Q3 [19]: 5.000 ng/mL
Plasma concentration, Maximum [20]: 3.39 ng/mL
Plasma concentration, Mean [20]: 2.355 ng/mL
Plasma concentration, Median [20]: 2.090 ng/mL
Plasma concentration, Minimum [20]: 1.56 ng/mL
Plasma concentration, Q1 [20]: 1.700 ng/mL
Plasma concentration, Q3 [20]: 3.300 ng/mL
Plasma concentration, Maximum [21]: 1.78 ng/mL
Plasma concentration, Mean [21]: 0.7192 ng/mL
Plasma concentration, Median [21]: 0.4820 ng/mL
Plasma concentration, Minimum [21]: 0.237 ng/mL
Plasma concentration, Q1 [21]: 0.3360 ng/mL
Plasma concentration, Q3 [21]: 0.9980 ng/mL
Plasma concentration, Maximum (14 mg, Predose): 0.00 ng/mL
Plasma concentration, Mean (14 mg, Predose): 0.000 ng/mL
Plasma concentration, Median (14 mg, Predose): 0.000 ng/mL
Plasma concentration, Minimum (14 mg, Predose): 0.00 ng/mL
Plasma concentration, Q1 (14 mg, Predose): 0.000 ng/mL
Plasma concentration, Q3 (14 mg, Predose): 0.000 ng/mL
Plasma concentration, Maximum (28 mg, 3 hr After End of Infusion): 13.4 ng/mL
